# Some of the results follow. Antibody binding of pooled human sera (four to six donors per pool; dilution not stated) to peptides of the Trypanosoma cruzi antigen TSSA on microarrays. Quantile-normalised fluorescence in arbitrary units, mean of duplicate arrays; higher = more binding. No active / inactive call. The uninfected pools are read here as the healthy donors of the same country. The strongest signals lie near the top of the scale (about 60,000).
# Columns and labels:
# Assay in all cases: antibody binding signal (normalised fluorescence) (arbitrary fluorescence units); higher = stronger serum antibody binding to peptide
# [1] = tested on: pooled sera of chronic Chagas disease patients, Argentina
# Procedure: (§1)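 Microarray of 15-residue peptides over residues 30-55 of Trypanosoma cruzi TSSAII, each with 1 to 10 substitutions at naturally variable positions, probed with one serum pool per country.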
# [2] = tested on: pooled sera of chronic Chagas disease patients, Bolivia
# Procedure: as §1
# [3] = tested on: pooled sera of chronic Chagas disease patients, Brazil
# Procedure: as §1
# [4] = tested on: pooled sera of chronic Chagas disease patients, Colombia
# Procedure: as §1
# [5] = tested on: pooled sera of chronic Chagas disease patients, Mexico
# Procedure: as §1
# [6] = tested on: pooled sera of chronic Chagas disease patients, USA
# Procedure: as §1
# [7] = tested on: pooled sera of uninfected people, Argentina
# Procedure: as §1
# [8] = tested on: pooled sera of uninfected people, Bolivia
# Procedure: as §1
# [9] = tested on: pooled sera of uninfected people, Brazil
# Procedure: as §1
# [10] = tested on: pooled sera of uninfected people, Colombia
# Procedure: as §1
# [11] = tested on: pooled sera of uninfected people, Mexico
# Procedure: as §1
# [12] = tested on: pooled sera of uninfected people, USA
# Procedure: as §1
Sequence,antibody binding signal [1],antibody binding signal [2],antibody binding signal [3],antibody binding signal [4],antibody binding signal [5],antibody binding signal [6],antibody binding signal [7],antibody binding signal [8],antibody binding signal [9],antibody binding signal [10],antibody binding signal [11],antibody binding signal [12]
GKENKPAAGGAPSPP,1040,256,4780,2800,2670,7010,568,170,115,127,139,129
STPPSGKENKTATGG,39100,8250,13800,762,6760,3700,2390,1230,177,740,279,387
PPSGKDNKTAAGGTP,2170,528,1830,4080,8830,4290,402,567,416,259,529,226
GTDKKTAAGGTPSQP,636,230,365,12300,469,1960,366,191,606,457,908,112
KDKKPATGGAPSPPG,444,452,395,578,412,1080,288,258,91.8,93.7,101,110
KEKKAATGGTPSPPG,313,277,135,428,210,518,135,76.9,202,358,68.4,88.9
GKEKKTAAGETPSQS,3100,268,337,2220,2490,2180,108,103,106,216,87.7,127
TEKKAATGETPSQSG,2460,1790,14400,320,415,10300,419,242,283,596,299,214
KDNKAATGGAPSQPG,342,356,10500,276,248,693,296,1130,164,142,75.8,112
KEKKTAAGETPSPSG,159,194,178,260,210,1320,127,115,101,204,90.1,456
PPSGKDKKTAAGGTP,851,350,464,4510,19900,2180,107,459,313,192,113,131
TEKKAAAGETPSQPG,1790,2430,30600,485,388,3760,118,389,220,845,246,234
SGTDNKTATGEAPSP,13100,28500,40900,169,188,21000,130,549,821,142,108,154
KKPAAGETPSPPGAS,177,256,2450,176,181,516,373,364,109,166,84.3,552
DKKAAAGETPSPPGA,445,213,1730,265,281,1600,145,196,169,117,172,292
KDKKAAAGGAPSQSG,227,183,164,1490,633,213,128,76,125,86.3,79.7,108
KEKKPATGETPSPSG,21700,4290,17800,146,138,17600,140,148,115,119,584,1370
TENKAATGGAPSQPG,32000,1700,25500,570,606,3370,279,149,293,191,182,168
GTDKKAATGETPSPS,1440,1710,10700,2420,598,11200,499,311,226,524,536,2610
PSGTENKAATGETPS,36800,28400,42400,1110,1830,17700,1100,401,267,362,291,214
KENKPATGGTPSQSG,397,303,1290,369,631,384,381,353,181,120,148,147
GKDNKTATGETPSPP,3000,1170,4160,5070,4280,8100,244,324,154,374,144,699
SGKDNKPATGEAPSP,43300,46700,51200,450,343,40000,1260,948,286,313,372,136
TDKKAATGETPSPSG,1290,2650,11200,220,212,11400,340,199,323,497,464,1910
SGKENKPAAGGTPSQ,3290,634,17800,5880,5670,17100,10400,3250,381,232,426,181

Sequence,antibody binding signal [1],antibody binding signal [2],antibody binding signal [3],antibody binding signal [4],antibody binding signal [5],antibody binding signal [6],antibody binding signal [7],antibody binding signal [8],antibody binding signal [9],antibody binding signal [10],antibody binding signal [11],antibody binding signal [12]
TEKKAAAGETPSPSG,977,238,649,423,363,3670,146,253,189,204,353,1970
NKPAAGGTPSPPGAS,246,416,2510,1550,322,326,648,1110,1240,1710,201,1580
ISTPPSGTENKPAAG,53900,52400,52600,442,12800,41100,8840,1720,830,1130,674,1180
KKTATGGTPSQPGAS,379,474,338,1740,217,1260,490,162,215,199,468,280
TEKKPAAGEAPSPSG,1040,297,6990,359,330,14000,105,210,215,76.4,182,682
SGKDKKTAAGGTPSP,804,243,300,5520,913,2120,113,88.4,258,188,95,114
PPSGKDNKPATGETP,36300,20800,33500,346,14600,32600,632,785,515,271,1950,264
DKKTATGEAPSQPGA,13700,19200,39200,179,520,20300,267,107,185,141,326,170
TPPSGTDKKTAAGGA,24900,12300,30000,6950,44200,1910,877,157,270,232,467,329
TISTPPSGTDKKAAA,31900,5220,34700,8250,41300,3080,1560,258,202,336,1390,607
GKDKKPAAGGTPSPP,221,217,141,1340,456,406,97,82.2,416,120,72.7,95.1
PSGKENKAAAGEAPS,9290,3400,14600,13500,11700,13400,6710,2890,197,637,312,190
SGTDKKTATGGAPSQ,3770,423,2900,5800,1590,1330,365,385,136,155,556,183
EKKPAAGEAPSPPGA,896,334,17500,384,259,14700,133,699,175,107,167,734
GTEKKAATGGTPSQS,1080,944,409,1210,1390,1310,346,416,784,875,288,159
ENKTATGETPSQSGA,902,1590,7860,262,233,7090,124,206,227,144,200,159
PSGTEKKTATGGAPS,10200,668,4960,4140,4730,3510,552,490,136,131,307,317
DKKAATGGAPSQPGA,996,888,6640,1510,1000,1570,340,580,153,660,297,185
GTEKKPAAGETPSPS,3120,263,1780,1340,1400,2770,115,1060,1390,197,564,2310
GTDNKAAAGEAPSQP,7040,27400,40600,229,212,13900,118,720,1530,86.2,110,107
KKAATGEAPSQSGAS,4390,7150,23700,150,172,17500,392,123,106,207,204,292
KENKTAAGETPSQSG,177,263,1010,527,286,1770,207,191,135,157,258,145
TDNKPAAGETPSQPG,4780,4060,48600,380,183,6050,92.6,892,244,319,282,114
GKEKKTATGGTPSPP,3780,421,355,2910,2540,2930,190,175,122,131,90.3,100
KDKKTAAGGTPSQSG,276,177,197,3310,223,1520,170,76.7,316,143,100,111
